Assay results reported in the supplement of paper PMC3334620.
Over roughly 33,000 sequences, “E-score (-0.5 to 0.5)” has its median near -0.012; the highest 2% begin near 0.27. This is one part of the list.

biological target: T1, Vhr1 (UniProt P40522); experiment: PBM E-score (8-mer binding enrichment) (E-score (-0.5 to 0.5)); higher = stronger / more preferred TF binding; most listed sequences are background and not binding sites; conditions: protein concentration: 200 nM; construct: GST-full length
T1 sequence: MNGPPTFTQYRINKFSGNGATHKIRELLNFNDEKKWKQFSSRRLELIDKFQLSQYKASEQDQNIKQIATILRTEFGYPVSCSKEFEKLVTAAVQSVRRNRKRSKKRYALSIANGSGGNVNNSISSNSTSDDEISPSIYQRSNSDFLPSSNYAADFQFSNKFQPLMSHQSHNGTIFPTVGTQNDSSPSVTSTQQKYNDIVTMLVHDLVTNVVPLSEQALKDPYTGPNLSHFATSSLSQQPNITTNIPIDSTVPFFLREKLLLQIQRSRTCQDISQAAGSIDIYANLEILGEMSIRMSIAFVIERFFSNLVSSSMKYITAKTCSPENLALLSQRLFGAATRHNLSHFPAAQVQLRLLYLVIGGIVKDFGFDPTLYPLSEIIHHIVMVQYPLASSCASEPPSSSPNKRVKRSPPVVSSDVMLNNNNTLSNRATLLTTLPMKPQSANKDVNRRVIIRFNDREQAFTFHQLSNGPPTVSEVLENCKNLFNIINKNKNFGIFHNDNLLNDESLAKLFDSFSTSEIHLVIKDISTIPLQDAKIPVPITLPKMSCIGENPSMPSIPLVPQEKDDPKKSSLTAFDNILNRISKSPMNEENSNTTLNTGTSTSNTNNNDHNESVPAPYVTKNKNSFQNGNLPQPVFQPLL
In short: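 PURExpress in vitro transcription/translation supplied GST-tagged yeast transcription factors, either full-length or DNA-binding domain. Applied at about 100-200 nM to universal all-10-mer Agilent arrays double-stranded by primer extension, the bound protein was detected with fluorescent anti-GST. E-scores, modified Wilcoxon-Mann-Whitney statistics, were given by the Universal PBM Analysis Suite to ungapped eight-base words pooled with their reverse complements after masliner normalisation.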

| Sequence | PBM E-score |
| --- | --- |
| ACGTTCAA | -0.263 |
| AGCATGTC | 0.133 |
| ATATTAGG | 0.0838 |
| AGGATGGA | -0.0494 |
| AGTACCCC | 0.0588 |
| ATTGCAAT | -0.0197 |
| ATCGACAA | -0.0534 |
| TAACGACA | -0.0196 |
| GTAGCTCA | 0.0143 |
| ATCAAAGA | -0.186 |
| GATTCGGC | 0.168 |
| CCCTAGAG | -0.0545 |
| GCCTATCC | -0.116 |
| ATTTGGGA | -0.105 |
| ACGTGCCT | 0.0454 |
| GTTACAAC | 0.101 |
| ATCTTCGG | -0.144 |
| AAACTAAT | 0.177 |
| ATCCCATC | -0.103 |
| AGCCTGCG | -0.0373 |
| GTCCCCAC | -0.0828 |
| GAGTGGTA | 0.101 |
| ATGTCAAT | -0.0117 |
| AATCGAAC | 0.021 |

| Sequence | PBM E-score |
| --- | --- |
| TATAGGAA | 0.0238 |
| GACTCACC | 0.469 |
| GCCACTCA | 0.12 |
| CTTCGAAC | -0.073 |
| GTATCAGA | -0.00014 |
| GGACTGCA | 0.0284 |
| CAGTTGTC | 0.0804 |
| GACTAGAA | 0.0461 |
| ATCGGCGG | 0.175 |
| CTTGGGTA | 0.157 |
| CGGACCCC | -0.158 |
| ACATCAGC | 0.0376 |
| CAGCGCCC | -0.0867 |
| CTAATTGC | 0.127 |
| GTCGGCAA | -0.0184 |
| CCTGTTGC | 0.0181 |
| GGGTCTCA | 0.00842 |
| GGGATAAC | -0.0823 |
| AATAGGCT | -0.053 |
| AAGACCCG | -0.00758 |
| CAAATGCC | -0.267 |
| CCGAGCGA | 0.129 |
| GAACTCCC | 0.102 |
| GGGCCTCA | -0.276 |

| Sequence | PBM E-score |
| --- | --- |
| GGAGCTTA | -0.116 |
| ACTTTATC | -0.0107 |
| AGCTGCAA | -0.235 |
| ACCGACTA | -0.0288 |
| CGATTTGA | -0.0158 |
| GACCCCGA | 0.0335 |
| GGGTGGAC | 0.0477 |
| ACTCCTCC | 0.16 |
| TCGAAAAA | -0.0657 |
| AGGCATGA | -0.0052 |
| AAACCGTC | -0.145 |
| TACTTCGA | -0.0214 |
| ACGTAAAC | -0.331 |
| AATGCTAT | -0.0368 |
| GGGCTAGA | -0.0758 |
| GGTTCCAA | 0.118 |
| ACAACTAG | -0.0674 |
| AACAGCGC | 0.0307 |
| AAGCCTCA | -0.178 |
| TCTCCTAA | -0.12 |
| GATACGAC | 0.135 |
| GGCTTCCC | -0.0269 |
| AGGTCGAT | 0.0258 |
| ACGTTCAT | -0.194 |

| Sequence | PBM E-score |
| --- | --- |
| AAGAATCT | -0.21 |
| GACACCCA | 0.117 |
| GGGCCAGA | -0.159 |
| ACTCTTAG | -0.081 |
| GATCTCCA | -0.136 |
| ATCCGCCA | 0.0315 |
| GATATCGA | -0.0237 |
| GAACCAAC | 0.156 |
| CGCCGTTA | 0.053 |
| GGTTCCCA | 0.0487 |
| GGAATGAC | 0.116 |
| ATAACCAC | 0.226 |
| GTCACGAC | 0.111 |
| CCCAACAG | -0.0293 |
| ATTGGAGC | 0.112 |
| AAATCAGT | -0.144 |
| CAAACGCC | 0.0838 |
| CAGACGAC | 0.126 |
| ACGTTAGA | -0.18 |
| AAGTCACA | 0.246 |
| GTGCCTTA | -0.128 |
| AGTACCTC | 0.00267 |
